The RNAGym collection of RNA variant scans (doi:10.7554/elife.90254)
Read counts are not given, so values of variants with three or more changes are uncertain.

B1: LINE1-mini (parent)
chain: GGCAGAGCUCAACACAGCGUGGCAAAGUGGCUGUGGCUAGACUGCC

Variants of: B1
Assay: self-cleavage, relative activity (ratio to wild type); higher = more cleavage; in vitro, sequencing; the parent is a self-cleaving ribozyme

For GGCAGAGCUCAACAAACCGAAGCAAAGUGGCUGUGGCUAGUCUGCC [C15A G17C U20A G21A A41U], which self-cleavage is on record?
The self-cleavage was 0.03.

For GGCAGAGCUCAACAAAGCGUGGCAACGAGGCUGUGGCUAGACUGCC [C15A A26C U28A], which self-cleavage is on record?
Its self-cleavage is 0.08.

Which self-cleavage does the source give for GGCAGAGCUCAACAAAAUGUGGCAAAGUGGAUGUGCCUAGACUGCC [C15A G17A C18U C31A G36C] here?
The self-cleavage was 0.02.

For GGCAGAGCUCAACAAAGCGUGGAAAAGUGGCUGUGGCAAGACUGCC [C15A C23A U38A], which self-cleavage is on record?
The self-cleavage was 0.15.

With GGCAGAGCUCAACAAAUCGUGGCAAAGCGGCUGUGGCUAGACUGCC [C15A G17U U28C] as the variant, how does the self-cleavage read?
The self-cleavage was 0.11.

Which self-cleavage does the source give for GGCAGAGCUCAACAAAGCGUGGUAAAGUGGCUGUGGAUAGACUGCC [C15A C23U C37A] here?
Its self-cleavage is 0.11.

Which self-cleavage does the source give for GGCAGAGCUCAACAAAGCAUGGCAAAGUUGCUGUAUUUAGACUGCC [C15A G19A G29U G35A G36U C37U] here?
The self-cleavage was 0.03.

With GGCAGAGCUCAACAAAGAGUGGCAAAGUGGCUGUGGCUAGACUGUC [C15A C18A C45U] as the variant, how does the self-cleavage read?
Its self-cleavage is 0.05.

With GGCAGAGCUCAACAAAGAGCGGCAUAGUUGCUGUGGCUAGACUGCC [C15A C18A U20C A25U G29U] as the variant, how does the self-cleavage read?
Its self-cleavage is 0.03.

Which self-cleavage does the source give for GGCAGAGCUCAACAAAGCGUGGUAAAGUAGCUUGUGCUUCACUGCG [C15A C23U G29A G33U U34G G35U A39U G40C C46G] here?
The self-cleavage was 0.03.

For GGCAGAGCUCAACAAAGCAUGGCAAACUGGCUCUGGCUAGACUGCC [C15A G19A G27C G33C], which self-cleavage is on record?
Its self-cleavage is 0.01.

Which self-cleavage does the source give for GGCAGAGCUCAACAAAGCGUGGCAUAGUGACUGUGACUGGCCUGCC [C15A A25U G30A G36A A39G A41C] here?
Its self-cleavage is 0.18.

Which self-cleavage does the source give for GGCAGAGCUCAACAAAGCUUGGCAAAGUAGCAGUGGCUACACUGCC [C15A G19U G29A U32A G40C] here?
Its self-cleavage is 0.03.

For GGCAGAGCUCAACAAAGAUUGGCAAAGUGGCUGUGGGUAGACUGCC [C15A C18A G19U C37G], which self-cleavage is on record?
Its self-cleavage is 0.02.

With GGCAGAGCUCAACAAAGCGUGGCAAAGUGGCUGUGGCUCGUCUGCC [C15A A39C A41U] as the variant, how does the self-cleavage read?
The self-cleavage was 0.05.

With GGCAGAGCUCAACAAAGCGUGGUAAAGUGGCUGUGGCUAGACCUCC [C15A C23U U43C G44U] as the variant, how does the self-cleavage read?
The self-cleavage was 0.1.

With GGCAGAGCUCAACAAAGAGUGGCAAAGUAGCUUUUGCUAUACUGCC [C15A C18A G29A G33U G35U G40U] as the variant, how does the self-cleavage read?
The self-cleavage was 0.03.

Which self-cleavage does the source give for GGCAGAGCUCAACAAACCGGGGCAAAGUGGCUGCGGCUAGACUGCC [C15A G17C U20G U34C] here?
Its self-cleavage is 0.04.

With GGCAGAGCUCAACAAAGGGAAGCAAAGUGGCCGUGGCUAGACUGCG [C15A C18G U20A G21A U32C C46G] as the variant, how does the self-cleavage read?
The self-cleavage was 0.02.

Which self-cleavage does the source give for GGCAGAGCUCAACAAAGCCUGGUAAAGUGGCUGUGGCUAGAUUGCC [C15A G19C C23U C42U] here?
Its self-cleavage is 0.01.

For GGCAGAGCUCAACAAAGCGUGGCACUGUGGCUGUGGCUAGACUGCC [C15A A25C A26U], which self-cleavage is on record?
The self-cleavage was 0.07.

Which self-cleavage does the source give for GGCAGAGCUCAACAAAGCUUGGCAAAGUGGCGGUGGCUAGACUGCC [C15A G19U U32G] here?
The self-cleavage was 0.02.

For GGCAGAGCUCAACAAAGCGUGGCAUCGUGGCUGUGGCUAGACUGCC [C15A A25U A26C], which self-cleavage is on record?
The self-cleavage was 0.

For GGCAGAGCUCAACAAAAAGUAGCAAAGUGGCUGUUGCGAGACAGCC [C15A G17A C18A G21A G35U U38G U43A], which self-cleavage is on record?
The self-cleavage was 0.03.

For GGCAGAGCUCAACAAAGCGUGGCGAAGUGGCUGUGGCUUGACUGCU [C15A A24G A39U C46U], which self-cleavage is on record?
The self-cleavage was 0.01.

For GGCAGAGCUCAACAAAGCGUGGUAAAGUGGCUGUGGCAAGACUGCC [C15A C23U U38A], which self-cleavage is on record?
The self-cleavage was 0.53.

Which self-cleavage does the source give for GGCAGAGCUCAACAAAGCGUGGCAACGUGGCUGUGGCUAGACUGCA [C15A A26C C46A] here?
Its self-cleavage is 0.09.

For GGCAGAGCUCAACAAAGCGUGGCAUAGUGGCUGUGGCUAGGCUGCC [C15A A25U A41G], which self-cleavage is on record?
Its self-cleavage is 0.07.

Which self-cleavage does the source give for GGCAGAGCUCAACAAAGCGUGGCAAAGUGGCUGUGGCUUGAGUGCC [C15A A39U C42G] here?
Its self-cleavage is 0.03.

For GGCAGAGCUCAACAAAGCUUGGCAAAGUGGCUGUGGUUAGAUUGCC [C15A G19U C37U C42U], which self-cleavage is on record?
The self-cleavage was 0.04.

Which self-cleavage does the source give for GGCAGAGCUCAACAAAACGUGGCAAAGUGGCUGUAGCUAGGCUGCC [C15A G17A G35A A41G] here?
The self-cleavage was 0.1.

Which self-cleavage does the source give for GGCAGAGCUCAACAAAGCGUGGGAAAGUGGCUUUUGCUAGACUGCC [C15A C23G G33U G35U] here?
The self-cleavage was 0.05.

Which self-cleavage does the source give for GGCAGAGCUCAACAAAGAGUGGCUAAGUGGCUGUGGCUAGACUGCC [C15A C18A A24U] here?
The self-cleavage was 0.02.

Which self-cleavage does the source give for GGCAGAGCUCAACAAAGCGUGGCACAGUGGCUGUGGCUAGACCGCC [C15A A25C U43C] here?
Its self-cleavage is 0.03.

Which self-cleavage does the source give for GGCAGAGCUCAACAAAGCGUGGCAAGGUGGCUGUGGCUAGACUGAC [C15A A26G C45A] here?
Its self-cleavage is 0.01.

Which self-cleavage does the source give for GGCAGAGCUCAACAAAGCUGGGCAACGUGGCUGUGGCUAGACUGCC [C15A G19U U20G A26C] here?
The self-cleavage was 0.12.

For GGCAGAGCUCAACAAAGCGUGGUAAAGUCGCUGUGGCUAGACUGCC [C15A C23U G29C], which self-cleavage is on record?
The self-cleavage was 0.11.

Which self-cleavage does the source give for GGCAGAGCUCAACAAAGCGUGGCAGAGUGGCUGUGGAUAGACUGCC [C15A A25G C37A] here?
Its self-cleavage is 0.18.

With GGCAGAGCUCAACAAAGCGUGGCAAAGUGGAUGUGGCUAGGCUGCC [C15A C31A A41G] as the variant, how does the self-cleavage read?
Its self-cleavage is 0.02.

With GGCAGAGCUCAACAAAGCGUGGCAAAGUGGUUGUGGCUAGACUUCC [C15A C31U G44U] as the variant, how does the self-cleavage read?
Its self-cleavage is 0.02.

For GGCAGAGCUCAACAAAGCCUGGCAUCGUGGCUGUGGCUAGACUGCG [C15A G19C A25U A26C C46G], which self-cleavage is on record?
Its self-cleavage is 0.16.

With GGCAGAGCUCAACAAAGGGUGGCAAAGUGGCUGUGGCUGGACUGCC [C15A C18G A39G] as the variant, how does the self-cleavage read?
The self-cleavage was 0.06.

Which self-cleavage does the source give for GGCAGAGCUCAACAAAGCAUGGCAAUCUGGCUGUGGCUAGAUUGCC [C15A G19A A26U G27C C42U] here?
Its self-cleavage is 0.01.

With GGCAGAGCUCAACAAACCGUGGCAAAGUGGCUGUGGGUAGACUGCA [C15A G17C C37G C46A] as the variant, how does the self-cleavage read?
Its self-cleavage is 0.05.

Which self-cleavage does the source give for GGCAGAGCUCAACAAAGCUUGGCAAAGUGGCUGUGGCUUGACUGCC [C15A G19U A39U] here?
The self-cleavage was 0.02.

With GGCAGAGCUCAACAAAGCGUGGCGAAGUGGCUGUGGCUAGACUAUC [C15A A24G G44A C45U] as the variant, how does the self-cleavage read?
Its self-cleavage is 0.

For GGCAGAGCUCAACAAAGCGUGGCCUAGUGGAUGUGGCUAGACUGCC [C15A A24C A25U C31A], which self-cleavage is on record?
The self-cleavage was 0.01.

With GGCAGAGCUCAACAAAGCGUGGCCAAGCGGCUGGGGCUAGACUGCC [C15A A24C U28C U34G] as the variant, how does the self-cleavage read?
The self-cleavage was 0.02.

Which self-cleavage does the source give for GGCAGAGCUCAACAAAGCGUGGGAAUGUGGCUGUGGCUAUACUGCC [C15A C23G A26U G40U] here?
The self-cleavage was 0.18.

Which self-cleavage does the source give for GGCAGAGCUCAACAAAGAGAGGCAAAGUGGCUGUGGGGAGAAUGCC [C15A C18A U20A C37G U38G C42A] here?
Its self-cleavage is 0.01.

Which self-cleavage does the source give for GGCAGAGCUCAACAAAGCGUGGCAAAGUGGCUGUGGGUUGACUGCC [C15A C37G A39U] here?
Its self-cleavage is 0.01.

Which self-cleavage does the source give for GGCAGAGCUCAACAAAGCGUGGCAAAGUGGCUGUGGCUAGAGUGAC [C15A C42G C45A] here?
Its self-cleavage is 0.01.

With GGCAGAGCUCAACAAAGCGUGGCACAGUGGCUGUGUCUAGACUGCC [C15A A25C G36U] as the variant, how does the self-cleavage read?
Its self-cleavage is 0.02.

With GGCAGAGCUCAACAAAACGUGGCAAAGUGGCUGUGACUAGACUGCC [C15A G17A G36A] as the variant, how does the self-cleavage read?
Its self-cleavage is 0.07.

For GGCAGAGCUCAACAAACCGUGGCAAAGUAGCUGUGGCUAGAUUGCA [C15A G17C G29A C42U C46A], which self-cleavage is on record?
The self-cleavage was 0.02.

Which self-cleavage does the source give for GGCAGAGCUCAACAAAGCUUGGCAGAGUGGCUGUGGCUAGACUGCC [C15A G19U A25G] here?
Its self-cleavage is 0.04.
